# Source: the supplement of paper PMC10037445
# Several values for one entry are separate records, joined by “and”; a condition that tells them apart may be missing. Equal entries are not always repeated. ± gives the standard deviation of the averaged measurements. The full ranking holds about 2,900 compounds; the median of “NF-kB SEAP reporter activity, fold change vs agonist alone” is about 0.99, and the highest 2% start at about 2.6. The list shows a part of the results.
# Experiments:
# RAW-Dual [1] = assay: NF-kB SEAP reporter activity, fold change vs agonist alone; cytotoxicity flag (confluency mask): not cytotoxic; higher = enhanced NF-kB activity
# Procedure, shortened: (§1)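 RAW-Dual macrophages were seeded in DMEM at 50,000 cells/well in 384-well plates, given 50 nL of library stock by pin tool, and given a PRR agonist 1 h later. Plates were held at 37 °C, 5% CO2 for 20 hours, after which supernatant was read for IRF by QuantiLuc luminescence and for NF-κB by QuantiBlue absorbance at 620 nm. Reporter activity is expressed as fold change over wells that received agonist alone. A well was called cytotoxic when IncuCyte confluency fell below 70% of agonist controls in both mask sets.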
# RAW-Dual [2] = assay: NF-kB SEAP reporter activity, fold change vs agonist alone; higher = enhanced NF-kB activity; conditions: cytotoxicity flag (confluency mask): not cytotoxic
# Procedure, shortened: as §1
# [3] = agonist: ODN 1826 (TLR9) 0.5 ug/mL
# [4] = agonist: Pam2CSK4 (TLR2/6) 0.1 ug/mL
# [5] = agonist: Pam3CSK4 (TLR2/1) 0.1 ug/mL
# [6] = library stock concentration (final ~1000-fold dilution): 10 mM, agonist: Imiquimod (TLR7) […]
# [7] = library stock concentration (final ~1000-fold dilution): 10 mM, agonist: MPLA (TLR4) […]
structure (smiles),measurement,setting,value
Cc1c(C)c2c(c(C)c1O)CCC(C)(C(=O)O)O2 (stereo unspecified) (library stock concentration (final ~1000-fold dilution): 10 mM),NF-kB SEAP reporter activity,RAW-Dual [1]; agonist: LPS (TLR4) 0.1 ug/mL,1.06 and 1.28
same,NF-kB SEAP reporter activity,RAW-Dual [1]; [3],0.942 and 1.08
same,NF-kB SEAP reporter activity,RAW-Dual [1]; [4],0.884 and 1.06
same,NF-kB SEAP reporter activity,RAW-Dual [1]; [5],0.71 and 1.14
N.S=C(S)N1CCCC1,NF-kB SEAP reporter activity,RAW-Dual [2]; [6],1.15 ± 0.22
same,NF-kB SEAP reporter activity,RAW-Dual [2]; [7],1.5 ± 0.35
N.S=C(S)N1CCCC1 (library stock concentration (final ~1000-fold dilution): 10 mM),NF-kB SEAP reporter activity,RAW-Dual [1]; agonist: LPS (TLR4) 0.1 ug/mL,1.55 ± 0.34
same,NF-kB SEAP reporter activity,RAW-Dual [1]; [3],1.04 ± 0.043
same,NF-kB SEAP reporter activity,RAW-Dual [1]; [4],0.967 ± 0.17
same,NF-kB SEAP reporter activity,RAW-Dual [1]; [5],0.965 ± 0.042
CC(=O)OCC(=O)NCCCOc1cccc(CN2CCCCC2)c1.Cl (library stock concentration (final ~1000-fold dilution): 10 mM),NF-kB SEAP reporter activity,RAW-Dual [1]; agonist: LPS (TLR4) 0.1 ug/mL,1.01
same,NF-kB SEAP reporter activity,RAW-Dual [1]; [3],0.971
same,NF-kB SEAP reporter activity,RAW-Dual [1]; [4],0.943
same,NF-kB SEAP reporter activity,RAW-Dual [1]; [5],1.08
CC(=O)OCC(=O)NCCCOc1cccc(CN2CCCCC2)c1.Cl,NF-kB SEAP reporter activity,RAW-Dual [2]; [6],0.935
same,NF-kB SEAP reporter activity,RAW-Dual [2]; [7],0.985
CCOC1OC(=O)CC1NC(=O)C1CCCN1C(=O)C(NC(=O)c1ccc(N)c(Cl)c1)C(C)(C)C (stereo unspecified),NF-kB SEAP reporter activity,RAW-Dual [2]; [6],0.911
same,NF-kB SEAP reporter activity,RAW-Dual [2]; [7],0.995
CCOC1OC(=O)CC1NC(=O)C1CCCN1C(=O)C(NC(=O)c1ccc(N)c(Cl)c1)C(C)(C)C (stereo unspecified) (library stock concentration (final ~1000-fold dilution): 10 mM),NF-kB SEAP reporter activity,RAW-Dual [1]; agonist: LPS (TLR4) 0.1 ug/mL,0.973
same,NF-kB SEAP reporter activity,RAW-Dual [1]; [3],1
same,NF-kB SEAP reporter activity,RAW-Dual [1]; [4],1
same,NF-kB SEAP reporter activity,RAW-Dual [1]; [5],0.976
CN1CCN(c2ccc(Nc3ncc4cc(C#N)c(=O)n(C5CCCC5)c4n3)cc2)CC1 (library stock concentration (final ~1000-fold dilution): 10 mM),NF-kB SEAP reporter activity,RAW-Dual [1]; agonist: LPS (TLR4) 0.1 ug/mL,1.35
same,NF-kB SEAP reporter activity,RAW-Dual [1]; [3],0.9
same,NF-kB SEAP reporter activity,RAW-Dual [1]; [4],0.404
same,NF-kB SEAP reporter activity,RAW-Dual [1]; [5],0.601
CN1CCN(c2ccc(Nc3ncc4cc(C#N)c(=O)n(C5CCCC5)c4n3)cc2)CC1,NF-kB SEAP reporter activity,RAW-Dual [2]; [6],1.02
same,NF-kB SEAP reporter activity,RAW-Dual [2]; [7],1.33
CCCC1CC(C(=O)NC(C(C)Cl)C2OC(SC)C(O)C(O)C2O)N(C)C1.Cl.O (stereo unspecified) (library stock concentration (final ~1000-fold dilution): 10 mM),NF-kB SEAP reporter activity,RAW-Dual [1]; agonist: LPS (TLR4) 0.1 ug/mL,1.29
same,NF-kB SEAP reporter activity,RAW-Dual [1]; [3],0.918
same,NF-kB SEAP reporter activity,RAW-Dual [1]; [4],0.831
same,NF-kB SEAP reporter activity,RAW-Dual [1]; [5],0.973
CCCC1CC(C(=O)NC(C(C)Cl)C2OC(SC)C(O)C(O)C2O)N(C)C1.Cl.O (stereo unspecified),NF-kB SEAP reporter activity,RAW-Dual [2]; [7],1.07
O=c1cc(-c2ccccc2)oc2cc(O)c(O)c(O)c12,NF-kB SEAP reporter activity,RAW-Dual [2]; [6],0.894
same,NF-kB SEAP reporter activity,RAW-Dual [2]; [7],0.999
O=c1cc(-c2ccccc2)oc2cc(O)c(O)c(O)c12 (library stock concentration (final ~1000-fold dilution): 10 mM),NF-kB SEAP reporter activity,RAW-Dual [1]; agonist: LPS (TLR4) 0.1 ug/mL,0.932
same,NF-kB SEAP reporter activity,RAW-Dual [1]; [3],0.703
same,NF-kB SEAP reporter activity,RAW-Dual [1]; [4],0.878
same,NF-kB SEAP reporter activity,RAW-Dual [1]; [5],0.544
CCN(CC)C(=O)C(c1ccccc1)N1CCN(c2ccc(NC(=O)c3ccccc3-c3cccnc3)cc2F)CC1 (stereo unspecified) (library stock concentration (final ~1000-fold dilution): 10 mM),NF-kB SEAP reporter activity,RAW-Dual [1]; agonist: LPS (TLR4) 0.1 ug/mL,1.49
same,NF-kB SEAP reporter activity,RAW-Dual [1]; [3],0.989
same,NF-kB SEAP reporter activity,RAW-Dual [1]; [4],0.932
same,NF-kB SEAP reporter activity,RAW-Dual [1]; [5],0.897
CCN(CC)C(=O)C(c1ccccc1)N1CCN(c2ccc(NC(=O)c3ccccc3-c3cccnc3)cc2F)CC1 (stereo unspecified),NF-kB SEAP reporter activity,RAW-Dual [2]; [6],1.01
same,NF-kB SEAP reporter activity,RAW-Dual [2]; [7],1.03
O=c1[nH]c(=O)c2nc3ccccc3nc2[nH]1,NF-kB SEAP reporter activity,"RAW-Dual [2]; library stock concentration (final ~1000-fold dilution): 2 mM, agonist: MPLA (TLR4) […]",0.967
O=c1[nH]c(=O)c2nc3ccccc3nc2[nH]1 (library stock concentration (final ~1000-fold dilution): 2 mM),NF-kB SEAP reporter activity,RAW-Dual [1]; agonist: LPS (TLR4) 0.1 ug/mL,1.13
same,NF-kB SEAP reporter activity,RAW-Dual [1]; [3],0.987
same,NF-kB SEAP reporter activity,RAW-Dual [1]; [4],1.03
same,NF-kB SEAP reporter activity,RAW-Dual [1]; [5],1.05
COC(=O)C1=C(C)NC(C)=C(C(=O)OC(C)(C)CN(C)CCC(c2ccccc2)c2ccccc2)C1c1cccc([N+](=O)[O-])c1.Cl (stereo unspecified),NF-kB SEAP reporter activity,RAW-Dual [2]; [6],0.526
same,NF-kB SEAP reporter activity,RAW-Dual [2]; [7],1.35
COC(=O)C1=C(C)NC(C)=C(C(=O)OC(C)(C)CN(C)CCC(c2ccccc2)c2ccccc2)C1c1cccc([N+](=O)[O-])c1.Cl (stereo unspecified) (library stock concentration (final ~1000-fold dilution): 10 mM),NF-kB SEAP reporter activity,RAW-Dual [1]; agonist: LPS (TLR4) 0.1 ug/mL,1.21
same,NF-kB SEAP reporter activity,RAW-Dual [1]; [3],0.335
same,NF-kB SEAP reporter activity,RAW-Dual [1]; [4],0.449
same,NF-kB SEAP reporter activity,RAW-Dual [1]; [5],0.363
